Laboratory results as given in patent publication US9730447B2, “Fungicidal amides” (E I DU PONT DE NEMOURS AND COMPANY, priority 2013, dated 2017).
At least one read-out could not be matched to a standard name with certainty. Marks after values point to notes of the source that are not given here.

Experiments:
Type in all cases: in vivo
[1] = system: Erysiphe graminis f. sp. tritici; experiment: Test E: preventive spray on wheat seedlings, Erysiphe graminis f. sp. tritici (wheat powdery mildew), visual disease rating
Source text: (§1) General protocol for preparing test suspensions for Tests A-E: the test compounds were first dissolved in acetone in an amount equal to 3% of the final volume and then suspended at the desired concentration (in ppm) in acetone and purified water (50/50 mix by volume) containing 250 ppm of the surfactant Trem® 014 (polyhydric alcohol esters). The resulting test suspensions were then used in Tests A-E. Compounds were sprayed with either a 40 ppm or 10 ppm (*) test suspension to the point of run-off on the test plants which is the equivalent of a rate of 160 g ai/ha or 40 g ai/ha, respectively.
The test suspension was sprayed to the point of run-off on wheat seedlings. The following day the seedlings were inoculated with a spore dust of Erysiphe graminis f. sp. tritici, (the causal agent of wheat powdery mildew) and incubated in a growth chamber at 20° C. for 8 days, after which time visual disease ratings were made.
(§2) Results for Tests A-E are given in Table A. In the Table, a rating of 100 indicates 100% disease control and a rating of 0 indicates no disease control (relative to the controls). A dash (-) indicates no test results.

Septoria tritici = experiment: Test C: preventive spray on wheat seedlings, Septoria tritici (wheat leaf blotch), visual disease rating
Source text: as §1
(§3) The test suspension was sprayed to the point of run-off on wheat seedlings. The following day the seedlings were inoculated with a spore suspension of Septoria tritici (the causal agent of wheat leaf blotch) and incubated in a saturated atmosphere at 24° C. for 48 h, and then moved to a growth chamber at 20° C. for 21 days, after which time visual disease ratings were made.
as §2

[2] = system: Stagonospora nodorum (also known as Septoria nodorum); experiment: Test B: preventive spray on wheat seedlings, Stagonospora nodorum (wheat glume blotch), visual disease rating
Source text: as §1
The test suspension was sprayed to the point of run-off on wheat seedlings. The following day the seedlings were inoculated with a spore suspension of Stagonospora nodorum (also known as Septoria nodorum; the causal agent of wheat glume blotch) and incubated in a saturated atmosphere at 20° C. for 48 h, and then moved to a growth chamber at 20° C. for 6 days, after which time visual disease ratings were made.
as §2

[3] = system: Puccinia recondite f. sp. tritici; experiment: Test D: preventive spray on wheat seedlings, Puccinia recondite f. sp. tritici (wheat leaf rust), visual disease rating
Source text: as §1
as §3, with “Puccinia recondite f. sp. tritici;” for “Septoria tritici”, “rust)” for “blotch)”, “20°” for “24°”, “24” for “48”, “6” for “21”
as §2

[4] = 100 = 100% disease control, 0 = no control, unmarked values
[5] = values marked with asterisk (*), meaning not given

SMILES	Test E disease control rating [1, 4] [%]	Test C disease control rating (Septoria tritici; [4]) [%]	Test B disease control rating [2, 4] [%]	Test D disease control rating [3, 4] [%]	Test E disease control rating [1, 5]	Test C disease control rating (Septoria tritici; [5])	Test B disease control rating [2, 5]	Test D disease control rating [3, 5]
O=C(Nc1ccccc1-c1cnc(-n2cc(Cl)cn2)c(Cl)c1)c1ncccc1C(F)(F)F [Compound 61, N-[2-[5-chloro-6-[4-chloro-1H-pyrazol-1-yl]-3-pyridinyl]phenyl]-3-(trifluoromethyl)-2-pyridinecarboxamide]	99	100	99	100				
Cn1cc(C(=O)Nc2ccccc2-c2cnc(-n3ccc(C(F)(F)F)n3)c(F)c2)c(C(F)F)n1 [Compound 68, 3-(difluoromethyl)-N-[2-[5-fluoro-6-[3-(trifluoromethyl)-1H-pyrazol-1-yl]-3-pyridinyl]phenyl]-1-methyl-1H-pyrazole-4-carboxamide]	100	100	100	100				
O=C(Nc1ccccc1-c1cnc(-n2ccc(C(F)(F)F)n2)cn1)c1ccccc1C(F)(F)F [Compound 1, 2-(trifluoromethyl)-N-[2-[5-[3-(trifluoromethyl)-1H-pyrazol-1-yl]-2-pyrazinyl]phenyl]benzamide]	0	83	0	88				
Cn1cc(C(=O)Nc2ccccc2-c2ccc(-n3ccc(C(F)(F)F)n3)nn2)c(C(F)F)n1 [Compound 54, 3-(difluoromethyl)-1-methyl-N-[2-[6-[3-(trifluoromethyl)-1H-pyrazol-1-yl]-3-pyridazinyl]phenyl]-1H-pyrazole-4-carboxamide]	0	0	0	86				
O=C(Nc1ccccc1-c1cnc(-n2ccc(C(F)(F)F)n2)c(Cl)c1)c1ncsc1Br [Compound 171, 5-bromo-N-[2-[5-chloro-6-[3-(trifluoromethyl)-1H-pyrazol-1-yl]-3-pyridinyl]phenyl]-4-thiazolecarboxamide]					40* %	96* %	0* %	99* %
O=C(Nc1ccccc1-c1cnc(-n2ccc(C(F)(F)F)n2)cn1)c1ncccc1C(F)(F)F [Compound 3, 3-(trifluoromethyl)-N-[2-[5-[3-(trifluoromethyl)-1H-pyrazol-1-yl]-2-pyrazinyl]phenyl]-2-pyridinecarboxamide]	0	0	0	9				
O=C(Nc1ccccc1-c1cnc(-n2ccc(C(F)(F)F)n2)c(Cl)c1)c1sccc1I [Compound 169, N-[2-[5-chloro-6-[3-(trifluoromethyl)-1H-pyrazol-1-yl]-3-pyridinyl]phenyl]-3-iodo-2-thiophenecarboxamide]					87* %	100* %	99* %	100* %
O=C(Nc1ccccc1-c1cnc(-n2ccc(C(F)(F)F)n2)nc1)c1ncccc1C(F)(F)F [Compound 56, 3-(trifluoromethyl)-N-[2-[2-[3-(trifluoromethyl)-1H-pyrazol-1-yl]-5-pyrimidinyl]phenyl]-2-pyridinecarboxamide]	99	100	0	99				
Cn1cc(C(=O)Nc2ccccc2-c2cnc(-n3ccc(C(F)(F)F)n3)cn2)c(C(F)F)n1 [Compound 2, 3-(difluoromethyl)-1-methyl-N-[2-[5-[3-(trifluoromethyl)-1H-pyrazol-1-yl]-2-pyrazinyl]phenyl]-1H-pyrazole-4-carboxamide]	89	100	0	100				
Cn1cc(C(=O)Nc2ccccc2-c2cnc(-n3ccc(C(F)(F)F)n3)nc2)c(C(F)F)n1 [Compound 58, 3-(difluoromethyl)-1-methyl-N-[2-[2-[3-(trifluoromethyl)-1H-pyrazol-1-yl]-5-pyrimidinyl]phenyl]-1H-pyrazole-4-carboxamide]	99	100	0	100				
O=C(Nc1ccccc1-c1cnc(-n2ccc(C(F)(F)F)n2)c(Cl)c1)c1sccc1Br [Compound 175, 3-bromo-N-[2-[5-chloro-6-[3-(trifluoromethyl)-1H-pyrazol-1-yl]-3-pyridinyl]phenyl]-2-thiophenecarboxamide]					64* %	100* %	92* %	100* %
CC(Cc1ccc(-n2ccc(C(F)(F)F)n2)nc1)NC(=O)c1ncccc1C(F)(F)F (stereo not shown) [Compound 84, N-[1-methyl-2-[6-[3-(trifluoromethyl)-1H-pyrazol-1-yl]-3-pyridinyl]ethyl]-3-(trifluoromethyl)-2-pyridinecarboxamide]	90	100	99	0				
O=C(Nc1ccccc1-c1ccc(-n2ccc(C(F)(F)F)n2)nn1)c1ncccc1C(F)(F)F [Compound 59, 3-(trifluoromethyl)-N-[2-[6-[3-(trifluoromethyl)-1H-pyrazol-1-yl]-3-pyridazinyl]phenyl]-2-pyridinecarboxamide]	98	33	0	9				
Cn1cc(C(=O)Nc2ccccc2-c2ccc(-n3ccc(C(F)(F)F)n3)nc2)c(C(F)F)n1 [Compound 51, 3-(difluoromethyl)-N-[2-[6-[3-(trifluoromethyl)-1H-pyrazol-1-yl]-3-pyridinyl]phenyl]-1-methyl-1H-pyrazole-4-carboxamide]	100	100	100	100				
O=C(Nc1ccccc1-c1cnc(-n2ccc(C(F)(F)F)n2)c(Cl)c1)c1ncccc1C(F)(F)F [Compound 34, N-[2-[5-chloro-6-[3-(trifluoromethyl)-1H-pyrazol-1-yl]-3-pyridinyl]phenyl]-3-(trifluoromethyl)-2-pyridinecarboxamide]	100	100	100	100				
CC(Cc1ccc(-n2ccc(C(F)(F)F)n2)nc1)NC(=O)c1cn(C)nc1C(F)F (stereo not shown) [Compound 83, 3-(difluoromethyl)-1-methyl-N-[1-methyl-2-[6-[3-(trifluoromethyl)-1H-pyrazol-1-yl]-3-pyridinyl]ethyl]-1H-pyrazole-4-carboxamide]	93	100	99	0				
